Whole data set: some 110,000 compounds, median “z-score” near -0.1, cut for the highest 2% near 2. The list shows a part of the results.

The test has as its target Metabotropic glutamate receptor 8 (Rattus norvegicus) (UniProt P70579). The test can be described thus: rat mGluR8 modulators via GIRK flux, primary screen, cell-based, thallium flux, HTS (AID 488969). Conditions: HEK293 rat mGluR8, GIRK (G protein-gated inwardly rectifying potassium channel) thallium flux, FluoZin2; at 10 µM; stronger effect = higher value; submaximal glutamate (EC20) added with thallium.
UniProt P70579, sequence (P70579 whole entry, looked up): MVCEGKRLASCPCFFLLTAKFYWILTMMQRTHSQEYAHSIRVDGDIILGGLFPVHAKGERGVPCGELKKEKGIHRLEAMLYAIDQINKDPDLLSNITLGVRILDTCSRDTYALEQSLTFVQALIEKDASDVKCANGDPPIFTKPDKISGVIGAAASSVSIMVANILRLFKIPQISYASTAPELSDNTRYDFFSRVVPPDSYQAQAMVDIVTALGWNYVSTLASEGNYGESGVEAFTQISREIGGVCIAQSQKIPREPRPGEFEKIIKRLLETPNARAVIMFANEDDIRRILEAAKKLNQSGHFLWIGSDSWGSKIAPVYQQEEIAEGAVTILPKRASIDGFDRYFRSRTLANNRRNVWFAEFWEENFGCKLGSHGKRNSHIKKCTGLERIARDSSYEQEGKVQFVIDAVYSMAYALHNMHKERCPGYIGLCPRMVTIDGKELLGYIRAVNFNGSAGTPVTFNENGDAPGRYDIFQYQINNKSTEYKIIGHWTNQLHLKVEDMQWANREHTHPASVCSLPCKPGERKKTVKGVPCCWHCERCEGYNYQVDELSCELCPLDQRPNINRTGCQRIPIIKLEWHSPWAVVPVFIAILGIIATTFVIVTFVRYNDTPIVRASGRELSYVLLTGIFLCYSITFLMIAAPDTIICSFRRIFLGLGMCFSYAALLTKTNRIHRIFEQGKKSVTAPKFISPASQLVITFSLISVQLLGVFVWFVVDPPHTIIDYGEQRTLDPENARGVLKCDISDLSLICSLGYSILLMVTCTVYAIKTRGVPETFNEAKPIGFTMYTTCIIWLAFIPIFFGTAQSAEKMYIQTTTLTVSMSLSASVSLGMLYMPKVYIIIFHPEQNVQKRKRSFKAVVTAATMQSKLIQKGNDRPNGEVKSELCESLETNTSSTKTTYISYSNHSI
Molecule `O=C(Nc1ccc(Cl)cc1)Nc1nnc(-c2ccncc2)s1` yielded a z-score of 0.625.
The molecule `O=C(N/N=C\c1cn(-c2ccccc2)nc1-c1ccccc1)c1ccc(Br)o1` came in with a z-score of 0.129.
The result for `CCn1c(SCC(=O)Nc2cccc(NC(=O)c3cccs3)c2)nnc1-c1ccncc1` reads -0.924; that for `COc1ccc(CC(=O)OCc2nnc(C3COc4ccccc4O3)o2)cc1OC` (centres undefined), -0.295; that for `O=C(NCc1ccccn1)C1CCC(=O)N1C1CCCC1` (centres undefined), -0.148.
In the case of `N/C(COc1ccc(F)cc1)=N\NC(=O)c1cccnc1Oc1ccccc1`, the z-score came out at 0.152.
On to `O=C(Cn1c(=O)oc2cc(S(=O)(=O)N3CCCC3)ccc21)N1CCN(c2ccccc2)CC1`, for which the z-score was -0.227.
Turning to `CCCn1c(SCC(=O)NCc2ccco2)nc2c1c(=O)n(C)c(=O)n2C`, the z-score was -0.274.
The result for `O=C(c1ccc(CN2CCOCC2)cc1)N1CCN(c2ccccc2)CC1` reads 0.0496.
The result for `CCc1nc(SCc2nnc(-c3ccc(C)cc3)o2)c2c(C)c(C)sc2n1` reads 2.26; that for `Cc1nn(C)c(C(=O)Nc2ccn(C34CC5CC(CC(C5)C3)C4)n2)c1[N+](=O)[O-]`, -0.352; that for `Cc1nn(C)cc1/C=N/NC(=S)Nc1ccccc1`, 0.161.
For `O=C1CCc2nc3ccccc3c(=O)n2N1`, the z-score was 0.554.
The result for `Cc1ccc(S(=O)(=O)N2CCCCC2)cc1NC(=O)COC(=O)c1cc[n+]([O-])cc1` reads -0.223; that for `C=CCc1cccc(/C=N/NC(=O)CCC(=O)Nc2ccc(F)cc2)c1O`, -0.177.
The result for `Cc1nn(-c2ccccn2)c2c1-c1nc(N)ncc1CC2` reads 0.0268.
`O=C1C(Cl)=C(NCC2CCCO2)C(=O)N1c1ccccc1` (centres undefined): the z-score was determined as 0.302.
The result for `COc1ccc(-n2c(C)cc(-c3csc(NC(=O)c4ccc(S(=O)(=O)N(C)C)cc4)n3)c2C)cc1` reads -0.439; that for `O=C(Nc1nnc(C2CC2)s1)C1Cc2ccccc2CN1S(=O)(=O)c1ccccc1F` (centres undefined), -0.696; that for `CC1(C)Cc2cccc(OCC(=O)Nc3cccnc3Cl)c2O1`, -1.2.
The result for `COC1CCCCC1NS(=O)(=O)c1ccccc1` (centres undefined) reads 0.306; that for `O=C1C2CCCN2C(c2cccc(Br)c2)N1c1ccc(F)cc1` (centres undefined), -0.401; that for `CCCOC(=O)c1ccc(Oc2c(-c3ccc(O)cc3O)n[nH]c2C)cc1`, -0.101.
The result for `O=C1OC(c2ccc(Br)cc2)=N/C1=C\N1CCCCC1` reads -0.66; that for `CCc1cc(/C(Cc2csc(C)n2)=N/O)c(O)cc1O`, 0.129; that for `COc1ccccc1Nc1nc(-c2sc(NC(=O)c3cccc(Cl)c3)nc2C)cs1`, -0.0406.
`CSc1nc2[nH]ncc2c(=O)n1-c1ccccc1` had a z-score of -1.58.
The molecule `COc1ccc(S(=O)(=O)N2CCN(C)CC2)cc1Br` returned a z-score of 0.0329.
The result for `CCNC(=O)C1CC(=O)OC12CCCCC2` (centres undefined) reads 0.317; that for `Oc1cccc(-c2nc3ccc4ccccc4c3c3c2CCC3)c1`, -0.105.
The result for `CCn1cc(CN(C)C(=O)CSc2nc(-c3ccco3)cc(C(F)(F)F)n2)c(C)n1` reads -0.163.
The result for `Cc1sc(NC(=O)Cc2ccc3c(c2)OCO3)nc1-c1ccc2c(c1)CCN2C(=O)c1ccccc1F` reads 0.615; that for `CCCCN=c1scc(-c2ccc3c(c2)NC(=O)CO3)n1N=C1CCCC1`, 0.495; that for `Cc1cc(=O)[nH]c(-c2ccccc2O)n1`, 0.0443.
Take `Cc1sc(NC(=O)c2ccco2)c(C(Nc2ccccn2)c2ccccc2)c1C` (centres undefined): the z-score was -0.177.
The result for `N#CCCCSc1nnc(Cc2ccc3c(c2)OCO3)o1` reads 0.714.
The result for `Cc1nnc(Sc2c(N)n(C)c(=O)n(C)c2=O)s1` reads 0.31; that for `CN1C(=O)c2cccc3c(Cl)ccc(c23)C1=O`, -0.106.
The result for `CCN(CC)S(=O)(=O)N1CCC(C(=O)NCC2COc3ccccc3O2)CC1` (centres undefined) reads -0.198; that for `CCOc1ccc(OCCSc2nnnn2C2CCCCC2)cc1`, 0.543.
Consider `CCOC(=O)c1c(NC(=O)COC(=O)c2cc(OC)c(OC)cc2[N+](=O)[O-])sc(C)c1C`, for which the z-score is -0.0967.
Molecule `COCCNC(=O)CSc1nnc(CCCN2C(=O)c3cccc4cccc(c34)C2=O)n1-c1ccccc1` returned a z-score of -0.209.
The result for `O=C(NC1CCCCC1)N1CCN(CCc2ccccc2)CC1` reads 0.524; that for `CC1CCc2c(nc3ncnn3c2Nc2ccc(OC(F)(F)F)cc2)C1` (centres undefined), -0.73.
The result for `Cc1ccc(Cl)cc1Nc1nc(-c2sc(NC(=O)c3ccco3)nc2C)cs1` reads 0.0211.
In the case of `CCc1nnc(NC(=O)CCC(=O)O)s1`, the z-score was -0.0075.
In turn, `O=C(CCSc1ccccc1)NCCSCc1ccco1` yielded a z-score of 0.657.
Molecule `Cn1c(=O)oc2cc(S(=O)(=O)NCCCN3CCCC3=O)ccc21` came in with a z-score of -0.124.
In turn, `CCOC(=O)C1CN(S(=O)(=O)c2ccc(C)cc2)c2cc(S(=O)(=O)CC)ccc2O1` (centres undefined) had a z-score of -0.375.
`Cc1c(-c2ccc(Br)cc2)nc2ccccn12` showed a z-score of -0.361.
`C=CCn1c(SCc2ccc([N+](=O)[O-])cc2)nnc1C(C)NC(=O)c1ccccc1` (centres undefined) yielded a z-score of -0.0826.
The result for `COc1ccc(-c2n[nH]c(C(F)(F)F)c2-c2cc3ccccc3o2)c(O)c1` reads -0.366; that for `COc1ccccc1NC(=S)NCCc1c[nH]c2ccccc12`, 0.083; that for `Cc1cc2c(cc1C)N(C(=O)CN1C(=O)c3ccccc3C1=O)C(C)(C)c1ssc(=S)c1-2`, -0.00698.
The result for `CCOC(=O)c1c(NC(=O)CSc2nnc(Cc3ccccc3)o2)sc(C(C)=O)c1C` reads -0.218.
For `CCOC(=O)c1nn(-c2ccc(C)cc2)cc1O`, the z-score was -0.269.
The result for `CCc1c(C)sc(NC(=O)c2cc(C3CC3)on2)c1C#N` reads 1.96; that for `CCc1sc(C(=O)NC2CCN(C)CC2)cc1Br`, 1.02; that for `Cc1ccc(S(=O)(=O)Nc2ccc(C(OC(=O)c3ccccc3[N+](=O)[O-])(C(F)(F)F)C(F)(F)F)cc2)cc1`, 0.353.
As for `CC(C)N1CC23C=CC(O2)C(C(=O)OCc2ccccc2)C3C1=O` (centres undefined), the z-score turned out to be 0.588.
The result for `C=CCn1c(=O)c2ccccc2n2c(SCc3cc(=O)n4ccsc4n3)nnc12` reads 1; that for `CN1CCN(c2ccccc2NC(=O)COc2ccc(Br)cc2)CC1`, -0.396; that for `CCC(=O)N1CCc2cc(Br)cc(S(=O)(=O)CCC(=O)NCCOC)c21`, -0.0862.
The result for `C[C@@H](NC(=O)c1coc(=O)c(Br)c1)c1ccccc1` reads -0.237.
The result for `COc1ccc(CCNC(=O)c2nc3ncccn3n2)cc1OC` reads 0.169.
`COc1ccc(N2CC(C(=O)Nc3ccc(S(=O)(=O)Nc4nc(C)cc(C)n4)cc3)CC2=O)cc1` (centres undefined) registered a z-score of -0.193.
The result for `CCNC(=O)Cn1cnc2c1c(=O)n(C)c(=O)n2C` reads 0.00387; that for `CC[C@@H](C)[C@H](NS(=O)(=O)c1ccc(C)cc1)C(=O)N1CCC(C(=O)NCC(=O)O)CC1`, -0.145.
The result for `CC(=O)c1cccc(NC(=O)C2CCCN2S(=O)(=O)c2cccc3nsnc23)c1` (centres undefined) reads -0.11.

Source of the values: PubChem BioAssay AID488969 (Vanderbilt High Throughput Screening Facility, 2010).
